In all, about 310,000 compounds went through this assay and about 14,000 (4.5%) showed an effect of 50% or more. The effect is printed as a negative number. This is one part of the list.

Consider 82 compounds from paper PMC4336329 (PLoS ONE, 2015).
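Note: peak tail current of the secondary pulse compared with the same well before compound.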

Chain of human ether-à-go-go-related gene (hERG) potassium channel (Q12809 whole entry, looked up): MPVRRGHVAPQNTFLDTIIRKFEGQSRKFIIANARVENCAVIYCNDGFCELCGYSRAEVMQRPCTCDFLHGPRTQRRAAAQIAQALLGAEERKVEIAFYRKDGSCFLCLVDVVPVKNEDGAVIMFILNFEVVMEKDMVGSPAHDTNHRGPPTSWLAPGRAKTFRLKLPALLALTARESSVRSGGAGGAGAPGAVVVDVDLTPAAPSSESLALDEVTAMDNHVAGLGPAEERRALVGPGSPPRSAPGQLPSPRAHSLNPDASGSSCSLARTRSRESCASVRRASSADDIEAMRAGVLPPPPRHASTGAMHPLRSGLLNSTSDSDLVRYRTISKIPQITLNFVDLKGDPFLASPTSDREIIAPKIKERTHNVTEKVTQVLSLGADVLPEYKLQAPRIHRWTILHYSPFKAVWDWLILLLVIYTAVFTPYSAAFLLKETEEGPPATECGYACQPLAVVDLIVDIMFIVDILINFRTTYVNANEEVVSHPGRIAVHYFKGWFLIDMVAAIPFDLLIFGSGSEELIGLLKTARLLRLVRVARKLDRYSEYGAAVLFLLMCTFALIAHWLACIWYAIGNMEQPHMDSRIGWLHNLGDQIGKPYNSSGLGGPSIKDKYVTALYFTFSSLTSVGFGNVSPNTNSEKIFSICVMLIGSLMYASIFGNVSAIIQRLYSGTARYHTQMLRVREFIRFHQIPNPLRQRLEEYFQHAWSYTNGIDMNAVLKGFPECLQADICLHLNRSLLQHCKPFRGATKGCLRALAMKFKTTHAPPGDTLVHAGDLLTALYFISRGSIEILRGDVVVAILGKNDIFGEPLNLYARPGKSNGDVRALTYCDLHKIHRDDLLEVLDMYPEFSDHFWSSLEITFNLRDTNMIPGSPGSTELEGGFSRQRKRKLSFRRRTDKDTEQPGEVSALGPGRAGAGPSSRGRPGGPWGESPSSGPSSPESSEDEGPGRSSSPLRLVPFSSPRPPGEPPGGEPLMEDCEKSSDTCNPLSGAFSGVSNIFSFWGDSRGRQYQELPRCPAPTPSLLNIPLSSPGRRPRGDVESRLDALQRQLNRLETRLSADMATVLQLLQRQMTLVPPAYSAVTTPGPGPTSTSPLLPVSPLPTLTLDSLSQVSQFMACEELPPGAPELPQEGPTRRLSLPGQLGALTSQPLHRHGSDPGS

The assay has as its target human ether-à-go-go-related gene (hERG) potassium channel (human, UniProt Q12809). Briefly: primary screen, population patch clamp on CHO cells stably expressing hERG.
Turning to `O=C(COC(=O)/C=C/c1ccc(Cl)cc1)NCCc1ccccc1`, the “hERG current change (%, negative = inhibition) at 10uM” value was found to be 2.89%.
As for `C1COCCO1.Cc1ccc2nc(Nc3nc(C)cc(-c4ccccc4)n3)[nH]c(=O)c2c1`, the figure is 5.62%; as for `Cc1cc2ncn(S(=O)(=O)N3CCOCC3)c2cc1C`, 12.6%; as for `COc1ccc(S(=O)(=O)n2nc(OC(=O)c3ccncc3)cc2N)cc1`, 16.9%.
As for `O=C(Nc1ccc(C(F)(F)F)cc1)N1CCN(C(=O)c2ccco2)CC1`, the figure is -21.8%; as for `C(=N\N1CCN(Cc2ccccc2)CC1)/c1cccs1`, -8.88%.
As for `C#CCOC(=O)C[N+](C)(C)CC#Cc1ccccc1.[Cl-]`, the figure is 33.3%; as for `CCCCn1c(N)c(N(CCOC)C(=O)c2ccc(OCc3c(C)noc3C)cc2)c(=O)[nH]c1=O`, 8.48%; as for `CC1=C(C(=O)OCc2ccccc2)C(c2ccc(C(F)(F)F)cc2)NC(=O)N1CCCCCC(=O)O` (stereo not shown), 0.239%.
For `C[C@H](NC(=O)c1nc[nH]c1C(=O)NCc1ccccc1)C(=O)OC(C)(C)C`, the “hERG current change (%, negative = inhibition) at 10uM” value is -13.9%.
In the case of `CCOc1ccc(-n2c(=O)c3sccc3n(Cc3cccc([N+](=O)[O-])c3)c2=O)cc1`, the “hERG current change (%, negative = inhibition) at 10uM” value was determined as 15.1%.
Turning to `COc1c(Br)cc(Br)cc1/C=N/NC(=O)c1cccnc1`, the “hERG current change (%, negative = inhibition) at 10uM” value is listed as -3.77%.
As for `CCOC(=O)c1c(NC(=O)CSc2nnc(Cc3ccccc3)o2)sc(C(C)=O)c1C`, the figure is -64.8%.
Consider `COc1ccc(CN(C)C(C)C(=O)Nc2ccc([N+](=O)[O-])cc2Cl)cc1OC` (stereo not shown), for which the “hERG current change (%, negative = inhibition) at 10uM” value is recorded as -35.9%.
As for `COC(=O)Cc1c(C)c2ccc(OCC(=O)N3CCCC(C)C3)c(C)c2oc1=O` (stereo not shown), the figure is -23.6%.
Consider `CCCC1(c2ccccc2)NC(=O)N(CC(=O)N2CC(=O)Nc3ccccc32)C1=O` (stereo not shown), for which the “hERG current change (%, negative = inhibition) at 10uM” value is recorded as 6.34%.
The figure for `COc1ccc(CNC(=O)CSc2ncn[nH]2)cc1` is -3.87%; for `NC(=O)CC1C(=O)N(c2ccc(F)cc2)C(=O)N1NC(=O)CCc1ccccc1` (stereo not shown) it is 6.14%.
In the case of `O=C(Nc1c(C(=O)N2CCN(c3ccccn3)CC2)oc2ccccc12)c1ccc([N+](=O)[O-])cc1`, the “hERG current change (%, negative = inhibition) at 10uM” value is recorded as -51%.
For `O=c1c(-c2cccc([N+](=O)[O-])c2)[n+]([O-])c2ccccc2n1O`, the “hERG current change (%, negative = inhibition) at 10uM” value came to 20.4%.
For `COc1ccc(/C=N/NC(=O)Nc2nonc2N)cc1`, the “hERG current change (%, negative = inhibition) at 10uM” value is reported as -9.74%.
The figure for `Cn1ccnc1SCc1cc(=O)[nH]c2ccccc12` is 18.7%; for `CCCCCN(C(=O)CCC(=O)OCc1cccc(F)c1)c1c(N)n(CCCC)c(=O)[nH]c1=O` it is 3.76%.
Regarding `CC1CN(Cc2cc(=O)oc3cc(O)c(Cl)cc23)CC(C)O1` (stereo not shown), the “hERG current change (%, negative = inhibition) at 10uM” value is listed as 13.8%.
The figure for `Cc1ccc(S(=O)(=O)N2CCCOC2CNC(=O)C(=O)NCCc2c[nH]c3ccccc23)cc1` (stereo not shown) is 1.28%.
The figure for `CC1(C)CC(=O)C2=C(C1)N(c1ccc(Cl)cc1)C(=O)C2(O)C(F)(F)F` (stereo not shown) is -47.1%; for `CC(OC(=O)CNC(=O)COc1ccccc1)C(=O)N(C)Cc1ccccc1` (stereo not shown) it is 5.07%; for `CC(C)(CNS(=O)(=O)c1ccc2c(c1)OCCO2)N1CCOCC1.Cl` it is 25.6%.
As for `CCOc1ccccc1NC(=S)N(CCCN1CCOCC1)Cc1cn(C)c2ccccc12`, the figure is -24.5%; as for `C#CC(C)(C)NC(=O)c1ccc(-c2ccccc2F)cc1`, 4.41%.
With `Cc1nn(C)cc1NC(=O)CCSc1nc(-c2ccco2)cc(C(F)(F)F)n1`, the “hERG current change (%, negative = inhibition) at 10uM” value was -5.29%.
For the compound `Cc1ccc(S(=O)(=O)N(C)C)cc1NC(=O)CSc1nc2ccccc2c(=O)n1CC1CCCO1` (stereo not shown), the “hERG current change (%, negative = inhibition) at 10uM” value is given as -16.4%.
As for `Cc1ccc(C)c(N2CCN(C(=O)c3cc(S(=O)(=O)N4CCOCC4)ccc3F)CC2)c1`, the figure is -10.4%.
As for `CC(=O)O[C@@H]1[C@@H](O)[C@@H](O)[C@H](Oc2c(-c3ccc(O)cc3)oc3c(CC=C(C)C)c(O)cc(O)c3c2=O)O[C@H]1C`, the “hERG current change (%, negative = inhibition) at 10uM” value is reported as 16.4%.
As for `COc1ccccc1NC1=NC2(CCCC2)N=C(N)N1`, the “hERG current change (%, negative = inhibition) at 10uM” value worked out at 2.84%.
Take `Cc1ccnc(NC(=O)CN2C(=O)c3ccccc3C2=O)c1`: the “hERG current change (%, negative = inhibition) at 10uM” value turned out to be 16.3%.
With `CCCOc1ccc(/C(O)=C2/C(=O)C(=O)N(CCCOC)C2c2ccncc2)cc1` (stereo not shown), the “hERG current change (%, negative = inhibition) at 10uM” value was -53.1%.
The figure for `CCCn1c(CC)nc([N+](=O)[O-])c1Sc1ccc(F)cc1` is -6.95%; for `CC(C)OP(=O)(OC(C)C)C(Nc1ccc([N+](=O)[O-])cc1)c1cccc([N+](=O)[O-])c1` (stereo not shown) it is -29.9%; for `CNC(=S)N(CCCO)Cc1cc2cc3c(cc2[nH]c1=O)OCO3` it is 16.8%.
As for `COc1ccc(-n2nnc3c(SCC(=O)N4CCCc5ccccc54)ncnc32)cc1`, the figure is 13.6%; as for `O=C(CN1C(=O)c2ccccc2S1(=O)=O)c1ccc(OC(F)F)cc1`, -23%; as for `CCCc1cc(=O)[nH]c(SCC(=O)N2CCN(S(=O)(=O)c3ccc(C)cc3)C2)n1`, 5.6%.
As for `COC(=O)C1=C(c2cc3ccccc3o2)C[C@@H]2CC[C@H]1N2C(=O)NCc1cccc2ccccc12`, the figure is 0.0943%.
With `CSCCC(NS(=O)(=O)c1ccc2c(c1)OCCO2)C(=O)NCCc1ccccn1` (stereo not shown), the “hERG current change (%, negative = inhibition) at 10uM” value was determined as 22.4%.
The figure for `COc1ccc(C(=O)/C=C/Nc2cccc(O)c2)cc1` is 10.3%; for `C=C(C)COc1ccc(-c2ncncc2-c2ccc(Br)cc2)c(O)c1` it is 18.5%.
`COCCCNC(=O)c1cc2cc(Br)ccc2oc1=O`: the “hERG current change (%, negative = inhibition) at 10uM” value is reported as 26.2%.
The figure for `N#CCC(=O)N/N=C/c1cn(Cc2ccc3ccccc3c2)c2ccccc12` is 21.9%.
Take `O=C(CNS(=O)(=O)c1ccccc1)NCc1ccco1`: the “hERG current change (%, negative = inhibition) at 10uM” value came out at 16.1%.
Consider `CC(C)(C)C(=O)OC/C(N)=N/OC(=O)c1ccc(Cl)cc1`, for which the “hERG current change (%, negative = inhibition) at 10uM” value is -10.2%.
As for `Nc1ncn[nH]1`, the figure is 13.5%.
Turning to `CCOc1ccccc1NC(=O)CCn1ccnc1`, the “hERG current change (%, negative = inhibition) at 10uM” value turned out to be 8.77%.
With `Cc1ccc(NC=C(S(=O)(=O)c2ccccc2)S(=O)(=O)c2ccccc2)c(C)c1`, the “hERG current change (%, negative = inhibition) at 10uM” value came out at 11.2%.
As for `CCn1cnc2c1c(=O)n(CC(=O)Nc1ccc(C(N)=O)cc1)c(=O)n2Cc1ccccc1`, the figure is 13.8%; as for `COc1ccc(Cn2c(=S)[nH]c3ccsc3c2=O)cc1`, 11.5%; as for `COc1ccc(-n2c(=O)[nH]c3cc(C(=O)NCCc4ccc(OC)c(OC)c4)ccc3c2=O)c(OC)c1`, 18.5%.
As for `COc1ccc(C(=O)N/N=C/c2ccc(OC(=O)c3cccc4ccccc34)c([N+](=O)[O-])c2)cc1`, the figure is 3.57%; as for `COc1ccccc1-c1c(C#N)c(N)nc2c1CCC2`, 0.295%.
On to `CC(Oc1ccc2ccc(=O)oc2c1)C(=O)c1ccccc1` (stereo not shown), for which the “hERG current change (%, negative = inhibition) at 10uM” value is -5.29%.
`CN1CCN2c3ncccc3Cc3ccccc3C2C1` (stereo not shown): the “hERG current change (%, negative = inhibition) at 10uM” value is recorded as -12.9%.
Turning to `O=C(Nc1ccccc1C(=O)O)c1cc(S(=O)(=O)Nc2cccc(F)c2)ccc1Cl`, the “hERG current change (%, negative = inhibition) at 10uM” value worked out at 19.3%.
The figure for `CN(C)S(=O)(=O)c1cc(NC(=O)COC(=O)C2COc3ccccc3O2)ccc1Cl` (stereo not shown) is -2.11%; for `CC(C)CNC(=O)c1cccc(NC(=O)c2ccc3c(c2)C(=O)N(C)C3=O)c1` it is -42.9%.
Take `CC1CCCC2(C1)NC(=S)N(c1ccccc1)N2` (stereo not shown): the “hERG current change (%, negative = inhibition) at 10uM” value is 8.73%.
On to `Cc1ccc(C)c(SCC(=O)OCC(=O)NCCNC(=O)COC(=O)CSc2cc(C)ccc2C)c1`, for which the “hERG current change (%, negative = inhibition) at 10uM” value is listed as 13.6%.
The figure for `NC(=O)[C@@H]1CCOc2c(I)cc([N+](=O)[O-])cc2C(=O)N[C@@H](CO)C(=O)NCC(=O)N1` is 1.74%; for `COc1cc(CC(=O)O)c([N+](=O)[O-])cc1OC` it is 2.02%; for `Cc1c(NC(=O)C(C)OC(=O)/C=C/c2ccccc2)c(=O)n(-c2ccccc2)n1C` (stereo not shown) it is 2.86%.
The figure for `O=c1[nH]c2cc3c(cc2cc1CN(CCO)S(=O)(=O)c1ccccc1Cl)OCCO3` is -22.6%; for `COc1cc(OC)cc(C(=O)NCC(=O)Nc2ccc(-c3ccccc3)cc2)c1` it is 1.55%.
In the case of `CCN(CC(=O)Nc1ccc(C)c(S(=O)(=O)N2CCOCC2)c1)Cc1ccccc1`, the “hERG current change (%, negative = inhibition) at 10uM” value was -47.1%.
Take `O=C(Nc1ccc(NC(=O)c2ccc(Cl)cc2Cl)cc1)c1ccc2c(c1)OCO2`: the “hERG current change (%, negative = inhibition) at 10uM” value is 25%.
Turning to `CCC(=O)NC(=S)Nc1ccc(NC(=O)c2cc3ccccc3o2)c(OC)c1`, the “hERG current change (%, negative = inhibition) at 10uM” value is recorded as 30.7%.
The figure for `CCN1C(=O)[C@H]2[C@@H](c3ccc(C)cc3)N3C(=O)N(c4ccc(C)cc4)C(=O)[C@@]3(Cc3ccccc3)[C@H]2C1=O` is 13.2%.
On to `c1ccc(C(c2nnnn2Cc2cccs2)N2CCN(C3CCCC3)CC2)cc1` (stereo not shown), for which the “hERG current change (%, negative = inhibition) at 10uM” value is -46.3%.
The figure for `O=C(Nc1ccc(Cl)c(S(=O)(=O)N2CCOCC2)c1)c1n[nH]c(=O)c2ccccc12` is 10.6%; for `NC(=O)COc1ccccc1C1=NO[C@@](CC(=O)O)(C(=O)Nc2ccc3c(c2)OCCO3)C1` it is 22.6%; for `Cc1ccc(N(C(=O)c2csnn2)C(C(=O)NC2CCCCC2)c2ccccn2)c(C)c1` (stereo not shown) it is -1.94%.
As for `Cc1ccc(NC(=O)CN2C(=O)N/C(=C\c3cccnc3)C2=O)cc1`, the figure is -6.99%.
As for `CN1CCN(c2ccc(S(=O)(=O)N3CCOCC3)cc2)CC1`, the “hERG current change (%, negative = inhibition) at 10uM” value was determined as 0.122%.
For the compound `CC(=O)Nc1nonc1C(=O)N1CCC(C)CC1`, the “hERG current change (%, negative = inhibition) at 10uM” value came to 0.665%.
